According to the supplement of paper PMC10126150:
Sequences with one replicate were seen in a single cluster, so their values are uncertain.
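Note: ATP exposure 15 min at 22 °C before imaging.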

The sequences below were run on ATP (assay: switch fluorescence ratio, 500 uM ATP over buffer (Cy3 cluster intensity, sum of 5 cycles each) (fold (ratio)); higher = stronger signal-on switching upon ATP binding; sequences stand for … in TCGTCGGCAGCGTCAGATGTGTATAAGAGACAGTTTTTTTTTTTTTTTTTTTTTTTTT…TC). Details: aptamer strand: ATP DNA aptamer (quencher-CACCTGGGGGAGTATTGCGGAGGAAGG + anchor), 100 nM annealed; ATP concentration: 500 uM; one replicate.
How it was run: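 Clusters with intensities outside 100-1000 RFU were excluded. The remaining Cy3-labelled switching-strand clusters on a modified Illumina MiSeq flow-cell had been annealed to 100 nM quencher-labelled ATP aptamer and imaged in selection buffer, then after 15 min with 500 uM ATP at 22 °C, for five cycles separated by NaOH stripping and re-annealing. The fluorescence ratio, averaged per switch-domain sequence, is each cluster's summed target-cycle Cy3 intensity over its summed buffer-cycle Cy3 intensity.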
For AGTGTTGTCC, the switch fluorescence ratio was 1.01.
AGTTAAGTGT was tested, and the switch fluorescence ratio was 0.979.
AGTTAATCAG showed a switch fluorescence ratio of 0.998.
AGTTAGGCGT gave a switch fluorescence ratio of 1.01.
AGTTATAATA showed a switch fluorescence ratio of 0.998.
AGTTATATAT gave a switch fluorescence ratio of 1.06.
In the case of AGTTATGAAC, the switch fluorescence ratio is reported as 1.04.
For AGTTATGCCA, the switch fluorescence ratio was 0.968.
AGTTCACTAG gave a switch fluorescence ratio of 0.954.
For AGTTCATGGT, the switch fluorescence ratio was 1.02.
AGTTCCATTG showed a switch fluorescence ratio of 0.94.
AGTTCTAGTT gave a switch fluorescence ratio of 1.
AGTTGAATTA gave a switch fluorescence ratio of 0.981.
In the case of AGTTGAGTAA, the switch fluorescence ratio is reported as 0.998.
Sequence AGTTGCACTG has a switch fluorescence ratio of 0.956.
For AGTTGCAGGC, the switch fluorescence ratio was 1.06.
Work on AGTTGCATG yielded a switch fluorescence ratio of 0.943.
For AGTTGGGCGC, the switch fluorescence ratio was 1.05.
AGTTGGTTCG was tested, and the switch fluorescence ratio was 0.972.
Sequence AGTTGTCTGA has a switch fluorescence ratio of 0.93.
Work on AGTTTACCCT yielded a switch fluorescence ratio of 1.01.
With AGTTTACTAA the switch fluorescence ratio was 0.992.
AGTTTATCAG showed a switch fluorescence ratio of 1.04.
AGTTTCAAAC gave a switch fluorescence ratio of 0.937.
Work on AGTTTCAATA yielded a switch fluorescence ratio of 1.02.
Sequence AGTTTCATTG has a switch fluorescence ratio of 0.983.
Sequence AGTTTCATTT has a switch fluorescence ratio of 0.975.
Work on AGTTTCTCAT yielded a switch fluorescence ratio of 0.988.
AGTTTCTTCA was tested, and the switch fluorescence ratio was 1.04.
For AGTTTGGCT, the switch fluorescence ratio was 1.06.
AGTTTGGGAC gave a switch fluorescence ratio of 0.979.
AGTTTTATGG gave a switch fluorescence ratio of 0.968.
In the case of AGTTTTCAAT, the switch fluorescence ratio is reported as 0.999.
ATAAAAAGCC gave a switch fluorescence ratio of 1.
ATAAAACTGA gave a switch fluorescence ratio of 1.01.
With ATAAAATGTA the switch fluorescence ratio was 0.955.
ATAAACCTCG was tested, and the switch fluorescence ratio was 1.08.
In the case of ATAAACGTAT, the switch fluorescence ratio is reported as 1.06.
Work on ATAAACTACG yielded a switch fluorescence ratio of 1.05.
In the case of ATAAACTAT, the switch fluorescence ratio is reported as 1.
ATAAAGATTG was tested, and the switch fluorescence ratio was 0.971.
With ATAAAGCCTC the switch fluorescence ratio was 0.979.
In the case of ATAAAGCTTT, the switch fluorescence ratio is reported as 1.01.
ATAAAGGCG gave a switch fluorescence ratio of 1.16.
Work on ATAAAGGTAC yielded a switch fluorescence ratio of 0.984.
ATAAAGTATC was tested, and the switch fluorescence ratio was 0.955.
ATAAATGCGA gave a switch fluorescence ratio of 1.06.
ATAACAACTC gave a switch fluorescence ratio of 1.
ATAACACCGC showed a switch fluorescence ratio of 1.19.
Work on ATAACAGGTC yielded a switch fluorescence ratio of 1.1.
Sequence ATAACATGGT has a switch fluorescence ratio of 1.06.
ATAACCATGA was tested, and the switch fluorescence ratio was 0.982.
Sequence ATAACCCCCA has a switch fluorescence ratio of 1.44.
In the case of ATAACCTAGT, the switch fluorescence ratio is reported as 0.974.
For ATAACCTCTT, the switch fluorescence ratio was 1.07.
In the case of ATAACCTGGT, the switch fluorescence ratio is reported as 1.
ATAACGCTTG was tested, and the switch fluorescence ratio was 1.01.
With ATAACTACAC the switch fluorescence ratio was 1.21.
Sequence ATAACTCAAT has a switch fluorescence ratio of 0.99.
Sequence ATAACTCTGT has a switch fluorescence ratio of 0.994.
ATAAGAACGG was tested, and the switch fluorescence ratio was 1.12.
Sequence ATAAGAGTCC has a switch fluorescence ratio of 0.919.
ATAAGCAAGT gave a switch fluorescence ratio of 1.1.
ATAAGGAAA was tested, and the switch fluorescence ratio was 0.999.
ATAAGGCAGT showed a switch fluorescence ratio of 1.
For ATAAGTAGCA, the switch fluorescence ratio was 0.977.
ATAAGTTGTA was tested, and the switch fluorescence ratio was 1.02.
ATAATACTCG gave a switch fluorescence ratio of 1.15.
ATAATAGGAG gave a switch fluorescence ratio of 1.01.
ATAATATCCA showed a switch fluorescence ratio of 1.04.
Sequence ATAATATGAA has a switch fluorescence ratio of 0.948.
ATAATCATAC showed a switch fluorescence ratio of 1.06.
ATAATGAAAC was tested, and the switch fluorescence ratio was 1.05.
For ATAATGAGTG, the switch fluorescence ratio was 1.03.
Sequence ATAATTATG has a switch fluorescence ratio of 0.99.
In the case of ATAATTCGAC, the switch fluorescence ratio is reported as 1.04.
ATAATTCTCC gave a switch fluorescence ratio of 1.05.
With ATACAATAGC the switch fluorescence ratio was 1.15.
ATACAATGGC gave a switch fluorescence ratio of 0.998.
ATACACAGAG was tested, and the switch fluorescence ratio was 1.02.
ATACACCATC was tested, and the switch fluorescence ratio was 1.02.
Sequence ATACACGAC has a switch fluorescence ratio of 1.2.
Work on ATACAGAGTG yielded a switch fluorescence ratio of 1.03.
ATACAGTGC showed a switch fluorescence ratio of 1.04.
ATACATTAGC was tested, and the switch fluorescence ratio was 1.07.
ATACCACTGA showed a switch fluorescence ratio of 1.04.
ATACCCCTTC was tested, and the switch fluorescence ratio was 1.14.
Sequence ATACCCGAGA has a switch fluorescence ratio of 1.05.
ATACCCGGGG gave a switch fluorescence ratio of 0.992.
ATACCGGCCG showed a switch fluorescence ratio of 0.985.
Sequence ATACCTGATA has a switch fluorescence ratio of 1.07.
ATACCTTTTA was tested, and the switch fluorescence ratio was 1.04.
ATACGACTAT was tested, and the switch fluorescence ratio was 1.1.
With ATACGACTTG the switch fluorescence ratio was 0.99.
With ATACGCCCAA the switch fluorescence ratio was 1.19.
ATACGCCCTT showed a switch fluorescence ratio of 1.15.
In the case of ATACGCGGCG, the switch fluorescence ratio is reported as 1.01.
ATACGCTAT gave a switch fluorescence ratio of 1.53.
In the case of ATACGCTTAA, the switch fluorescence ratio is reported as 1.14.
ATACGGAAA showed a switch fluorescence ratio of 1.
Work on ATACGGACGA yielded a switch fluorescence ratio of 1.44.
Work on ATACGGAGTG yielded a switch fluorescence ratio of 0.968.
In the case of ATACGGATTA, the switch fluorescence ratio is reported as 1.03.
In the case of ATACGGGCAT, the switch fluorescence ratio is reported as 0.985.
ATACGGGCGG showed a switch fluorescence ratio of 1.04.
For ATACGTCTTT, the switch fluorescence ratio was 0.975.
In the case of ATACTAGTTG, the switch fluorescence ratio is reported as 0.95.
ATACTCGGTC showed a switch fluorescence ratio of 1.09.
Work on ATACTCGTCG yielded a switch fluorescence ratio of 0.97.
ATACTCTATC gave a switch fluorescence ratio of 1.05.
With ATACTGAGTC the switch fluorescence ratio was 1.05.
Work on ATACTGATGG yielded a switch fluorescence ratio of 0.974.
ATACTGCGCA showed a switch fluorescence ratio of 1.19.
In the case of ATACTGCTGA, the switch fluorescence ratio is reported as 1.
With ATACTGGGAA the switch fluorescence ratio was 1.01.
ATACTTACGA showed a switch fluorescence ratio of 1.37.
ATACTTCTTC gave a switch fluorescence ratio of 1.06.
Work on ATAGAAATCA yielded a switch fluorescence ratio of 1.03.
Sequence ATAGAAATCG has a switch fluorescence ratio of 0.932.
Sequence ATAGAAGTAC has a switch fluorescence ratio of 1.34.
For ATAGACCGGA, the switch fluorescence ratio was 1.08.
In the case of ATAGACTCTT, the switch fluorescence ratio is reported as 0.994.
For ATAGAGATGC, the switch fluorescence ratio was 1.09.
ATAGAGGAAA showed a switch fluorescence ratio of 0.975.
ATAGAGGGC showed a switch fluorescence ratio of 1.06.
Work on ATAGATCAA yielded a switch fluorescence ratio of 1.04.
In the case of ATAGATGCTG, the switch fluorescence ratio is reported as 0.969.
ATAGATGG showed a switch fluorescence ratio of 1.1.
ATAGATGGGA gave a switch fluorescence ratio of 0.994.
For ATAGCACACC, the switch fluorescence ratio was 1.15.
ATAGCATTTT gave a switch fluorescence ratio of 1.05.
With ATAGCCGCAG the switch fluorescence ratio was 1.2.
In the case of ATAGCCTGAT, the switch fluorescence ratio is reported as 1.02.
Work on ATAGCCTTCT yielded a switch fluorescence ratio of 1.03.
ATAGCCTTTT showed a switch fluorescence ratio of 1.17.
Work on ATAGCGTCGA yielded a switch fluorescence ratio of 1.04.
ATAGGAAAGT was tested, and the switch fluorescence ratio was 0.983.
For ATAGGGAACA, the switch fluorescence ratio was 1.02.
ATAGGTCCAA was tested, and the switch fluorescence ratio was 1.04.
For ATAGTAAGAT, the switch fluorescence ratio was 0.965.
For ATAGTAGAG, the switch fluorescence ratio was 1.01.
In the case of ATAGTAGAGC, the switch fluorescence ratio is reported as 0.987.
Sequence ATAGTCCATG has a switch fluorescence ratio of 0.941.
ATAGTCGGCA showed a switch fluorescence ratio of 1.
Work on ATAGTCGTGG yielded a switch fluorescence ratio of 0.982.
ATAGTGCCTG gave a switch fluorescence ratio of 1.
For ATAGTTAGTT, the switch fluorescence ratio was 0.977.
In the case of ATAGTTGAGA, the switch fluorescence ratio is reported as 0.97.
For ATAGTTTACG, the switch fluorescence ratio was 1.04.
Work on ATATAAGCAT yielded a switch fluorescence ratio of 1.05.
For ATATACGGTG, the switch fluorescence ratio was 1.09.
Sequence ATATAGGACG has a switch fluorescence ratio of 1.01.
ATATATCCAC was tested, and the switch fluorescence ratio was 1.05.
For ATATATCGCT, the switch fluorescence ratio was 1.01.
ATATATTGT showed a switch fluorescence ratio of 1.02.
Sequence ATATCAACAT has a switch fluorescence ratio of 1.02.
ATATCAGGCA showed a switch fluorescence ratio of 1.02.
In the case of ATATCATGCT, the switch fluorescence ratio is reported as 0.968.
ATATCATT showed a switch fluorescence ratio of 0.968.
In the case of ATATCCACAA, the switch fluorescence ratio is reported as 1.24.
Sequence ATATCCTCAA has a switch fluorescence ratio of 1.05.
For ATATCGGAGT, the switch fluorescence ratio was 1.01.
Work on ATATCGGGCG yielded a switch fluorescence ratio of 0.989.
Work on ATATCTGCGT yielded a switch fluorescence ratio of 0.994.
ATATCTGGGG showed a switch fluorescence ratio of 0.972.
Sequence ATATCTTGTG has a switch fluorescence ratio of 0.986.
ATATGAGTGG showed a switch fluorescence ratio of 1.01.
For ATATGATAGT, the switch fluorescence ratio was 0.987.
In the case of ATATGCCCGG, the switch fluorescence ratio is reported as 0.965.
In the case of ATATGCCGTG, the switch fluorescence ratio is reported as 0.995.
ATATGCTAAC showed a switch fluorescence ratio of 1.02.
ATATGGCAAC was tested, and the switch fluorescence ratio was 0.974.
Work on ATATGGCTAA yielded a switch fluorescence ratio of 1.03.
Work on ATATGGGTCG yielded a switch fluorescence ratio of 0.958.
For ATATGTAATG, the switch fluorescence ratio was 0.999.
Sequence ATATGTCAG has a switch fluorescence ratio of 1.04.
Work on ATATGTCCTT yielded a switch fluorescence ratio of 1.02.
ATATGTGCT was tested, and the switch fluorescence ratio was 0.968.
Sequence ATATGTGTAG has a switch fluorescence ratio of 0.99.
Sequence ATATGTTCG has a switch fluorescence ratio of 0.999.
For ATATTACCTG, the switch fluorescence ratio was 1.06.
With ATATTATGCT the switch fluorescence ratio was 0.943.
For ATATTCACGC, the switch fluorescence ratio was 1.06.
ATATTCACTG gave a switch fluorescence ratio of 1.02.
ATATTCCTGC was tested, and the switch fluorescence ratio was 0.976.
ATATTGGTTC gave a switch fluorescence ratio of 1.
ATATTGTATC showed a switch fluorescence ratio of 1.02.
With ATATTTACAT the switch fluorescence ratio was 1.03.
Work on ATATTTCACC yielded a switch fluorescence ratio of 1.05.
In the case of ATATTTCGAG, the switch fluorescence ratio is reported as 1.07.
ATATTTCGGG was tested, and the switch fluorescence ratio was 1.05.
ATATTTGGGT was tested, and the switch fluorescence ratio was 1.01.
Work on ATCAACCAAT yielded a switch fluorescence ratio of 1.05.
Sequence ATCAAGGTGC has a switch fluorescence ratio of 1.55.
For ATCAATAGGA, the switch fluorescence ratio was 0.92.
ATCACATATT was tested, and the switch fluorescence ratio was 1.04.
ATCACGGGAC was tested, and the switch fluorescence ratio was 1.31.
For ATCACTCAGT, the switch fluorescence ratio was 1.03.
For ATCACTGCAA, the switch fluorescence ratio was 2.62.
ATCAGAAGAT was tested, and the switch fluorescence ratio was 0.977.
ATCAGAAGCC showed a switch fluorescence ratio of 1.03.
